Results published in the supplement of paper PMC11417369.
The list shows a part of the results.

The sequences below were run on PfHDP1 homeodomain (GST-tagged) (assay: gcPBM binding intensity (ln(normalized median fluorescence intensity)); higher = stronger DNA binding).
Summary of the method: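 Binding of GST-tagged P. falciparum DNA-binding domains, expressed in E. coli and used at about 25 μg on average, was carried out for 1 h in 1× PBS containing 1% milk, 0.2 mg/ml BSA, 0.5% salmon testes DNA and 0.03% Triton X-100. The target was an Agilent 4 × 180k array of primer-extended double-stranded 36-bp intergenic genomic probes plus negative controls, read with Alexa488 anti-GST antibody at 488 nm. Binding intensity is the highest Masliner-normalised natural-log median intensity across replicate spots of either probe orientation.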

Sequence | gcPBM binding intensity (ln)
AAAAAAATAAAATGTTCACACATTTCACAATTACTT [CACACA_site4859] | 6.03
AGAGGCCAGCTTTCTCTTCTAAACATGTACAAAAAT [GTGCAC_negctrl_site98] | 6.4
TGAGCACAAATACAGGTGCATATAAAATATATGACG | 9.06
TTTTTAACATTTAAATGTACATGTTACAATTTAAAG [XGTACX_site8789] | 6.46
TACTAAAACCCATACACACACATATATATAGTACCA [CACACA_site3184] | 6.77
AGAGACTTAGAAAACACACATACATAAGATAATTTA [CACACA_site2377] | 6.3
ACAGCATAATCATGCTGTACATTATTTTCTTAAGTA [XGTACX_site8456] | 6.13
TTTTTATTTTTATACATATAATATATTATGATTAAA [CACACA_negctrl_site214] | 6.69
CGCGAAGTAGCATTCACACACAGCAAAATATATATA [CACACA_site3495] | 6.83
CACTAATAGTGGATTACACACATATATATGTATATA [CACACA_site2531] | 6.62
ACTTACACATTTATTACACACATAAAGGAAAATTTT [CACACA_site1356] | 7.48
TTAAAAAATAACAAGGTGCAAATAGGTTTATAAAAT | 9.33
ATATTTAAATGGATCACACATATATATATATATATA [CACACA_site5255] | 9.5
CATTTTTCTATATGTGCATGTAAGATAAGAATAATT [TGCATGCA_site107] | 8.14
TTTCGTCATTTTGTTTTTAATTCTACAATTTAGTTA [XGTACX_negctrl_site286] | 6.53
TCATATAATATTTATATGCACACTTTTCTATATATA [CACACA_site4075] | 8.75
CCACTTTTTGAAGACACACACAAAAAAAAAAAAAAA [CACACA_site2551] | 6.32
ATATAATGACAAGTATAAGTATCACAAAGAAATAAA [CACACA_negctrl_site1403] | 6.87
TTTTGAAGAAAATTCTTTTTTTTTTTTTTTTGTAAA [CACACA_negctrl_site102] | 5.64

Sequence | gcPBM binding intensity (ln)
ATAACAATTATTTGTCGACACACGTATATGTTATTT [CACACA_site1766] | 6.91
CAAGCTTTTTCCTTTACACACATTAATTATATATAT [CACACA_site1423] | 7.42
TGCAAAAAATTCCACACACACACACGCATATAAATA [CACACA_site6696] | 6.72
TAAAATAAAAGTGAAACACACAGTATTTTACAACAT [CACACA_site3811] | 6.32
AAAATAGCTGTATAGAGTACATATAAATAATGTTGT [XGTACX_site5692] | 6.21
AGTGTGTGTAATAAAGTGCATTAAAAATGACACGTA | 9.52
GTACATACATAAAACACACACATATAGATTTATATA [CACACA_site6945] | 6.5
ATATATATTTAAACTACACACGCATATCTTAGAAAT [CACACA_site8348] | 6.69
ACCCACTTTTGAGGTGTGCACAATAAATTGGACATT | 10.5
AGGAAAAAAAAAATGACACACATATTTGAATTAAAA [CACACA_site1352] | 6.16
TAAGAGATATTTTATTAAATGTTTTATGAATCATGT [TGCATGCA_negctrl_site264] | 5.57
AAAAAAAAAAGACACACACACATATAAATATAAATA [CACACA_site6899] | 6.76
TCAAACGGTTAAATATGTACATATATATATATATAT [XGTACX_site2339] | 9.07
ACTCATAAAAATAGATGTACTTTAATAATTTGATTT [XGTACX_site8763] | 5.95
AAGGAAATATAATATACACACATAAGTGTACTTCTA [CACACA_site6079] | 6.24
TTTCAAACAAAAAGACGTACACTGAAGTTATCCGTC [XGTACX_site8824] | 6.19
TTGTATTCATAACAACGTACATATTTTGTAACTAAA [XGTACX_site4029] | 6.26
TATATATATAAACACACACACACCAAAGCGTAGCGC [CACACA_site7903] | 7.7
TATTAATAAAAGCATTGTACAGTAATAAATAAATAA [XGTACX_site2924] | 6.66

Sequence | gcPBM binding intensity (ln)
AGCCATTAATTCTCTACACACCTTTATGTTATTTAG [CACACA_site3635] | 6.8
CAATCAAATAGACACACACACACCTAAACATAAAAG [CACACA_site7322] | 6.79
ATATTAAAATGAAAATATAAAAAAAAAAAAAAAAAA [CACACA_negctrl_site1559] | 6.12
CGCATGTATTTTGTGTGTACTAATTATAATCAACTT [XGTACX_site4709] | 6.62
TTTTACATATACATGTGTACATAACAAAGAATGTTT [XGTACX_site2406] | 6.57
AGTGTATTAATTCTCACACACTAAGAAAAAAAAAAA [CACACA_site6007] | 6.11
TTTTTTAATAAATGGTGTACATATTTTTTTTATACT [XGTACX_site8584] | 6.49
TAATATTGTATTTATGTACACACATTTTTGGAATAT [CACACA_site8371] | 6.48
ATTCATAATATTATAACACACGCTTATTACATAAAG [CACACA_site980] | 6.89
TGTATGTTTATTTGATGTACGGTCATACATATAAAT [XGTACX_site5176] | 6.44
AAATTCATATGAATTTGTACGGACATAAATATCTTC [XGTACX_site1838] | 6.32
TTTAATATTTTTTTTTGTACTTATTTGTAGAAATAT [XGTACX_site3046] | 6.48
CTATTTTTTGTATAAACATGCATATAGTAGATATGG [TGCATGCA_site670] | 6.47
AGGCTCATTTTTTTTAGTACATCAAAAAAAAAAAAA [TGCATGCA_negctrl_site591] | 6.29
CCATAACTCATATGCACACATAAATATTACATATAT [CACACA_site3821] | 10.3
TTTTAAAAAGAAAAAAATAACATACATATATATATA [CACACA_negctrl_site240] | 8.77
ATTTTTTTTTTTTTTTTTTTTGAGAAGAACTTTTTC [CACACA_negctrl_site1019] | 5.91
ATGTCTACAGTTTTTGCACACATATAAATAAAAAAA [CACACA_site3600] | 10.3
AAACATCATAAATATACACACATATTTATATTTATA [CACACA_site6437] | 6.66
